Test results reported in publication PMC2646141.
Results are given in words; binding and its absence hold for the method and conditions named. For some assays here: In cells and extracts the contact can be indirect. Some results given as binding are weak or reduced against the parent protein; the word gives no strength. For some assays here: Where a sequence is shown, tags or fusion partners need not be part of it.

B1: wild type APOBEC3G (A3G) prey, Q9HC16 1-384 (protein)
chain: MKPHFRNTVERMYRDTFSYNFYNRPILSRRNTVWLCYEVKTKGPSRPPLDAKIFRGQVYSELKYHPEMRFFHWFSKWRKLHRDQEYEVTWYISWSPCTKCTRDMATFLAEDPKVTLTIFVARLYYFWDPDYQEALRSLCQKRDGPRATMKIMNYDEFQHCWSKFVYSQRELFEPWNNLPKYYILLHIMLGEILRHSMDPPTFTFNFNNEPWVRGRHETYLCYEVERMHNDTWVLLNQRRGFLCNQAPHKHGFLEGRHAELCFLDVIPFWKLDLDQDYRVTCFTSWSPCFSCAQEMAKFISKNKHVSLCIFTARIYDDQGRCQEGLRTLAEAGAKISIMTYSEFKHCWDTFVDHQGCPFQPWDGLDEHSQDLSGRLRAILQNQEN
B2: myc-tagged A3G, Q9HC16 1-384 (protein)
chain: B1 chain
B3: untagged wild type APOBEC3G (A3G), Q9HC16 1-384 (natural protein)
chain: B1 chain

What was measured:
Settings in all cases: remark: other sources report otherwise
[1] = target: wild type APOBEC3G (A3G) bait (human), Q9HC16; assay: two-hybrid; yeast Y190; wild type A3G in the bait plasmid pGBKT7, wild type or mutant A3G in the prey plasmid pHB18; beta-galactosidase activity (chlorophenol red-beta-D-galactopyranoside), OD540, normalised to Tsg101 bait/Vps28 prey set at 4.0
[2] = target: HA-tagged wild type A3G (human), Q9HC16; assay: cross-linking + co-IP; 293T cells co-transfected with A3G-myc and A3G-HA; lysate treated with BM(PEO)3, quenched with DTT, immunoprecipitated with 3F10 anti-HA and protein A-agarose, with or without later RNase A; blot with anti-myc
[3] = target: HA-tagged wild type A3G (human), Q9HC16; assay: co-IP; 293T cells co-transfected with pA3G-HA and a second A3G plasmid; cleared lysate (0.5% Triton X-100, 287 mM NaCl, pH 7.2); 3F10 anti-HA antibody and protein G- or A-agarose, 2 h at 4°C; aliquot without RNase A; immunoblot. In Figure 3A RNase A treatment substantially inhibited …
[4] = target: untagged wild type APOBEC3G (A3G) (human), Q9HC16; assay: cross-linking; cleared lysate of transfected 293T cells treated with BM(PEO)3 (cysteine-reactive, 18 Å linker), 20°C, 1 h, quenched with DTT; SDS-PAGE and immunoblot for A3G; ~80 kD species; no RNase A, or RNase A after the crosslinking

Binder	binding [1]	binding [2]	binding [3]	binding [4]
B1	binds			
B2		binds	binds	
B3			binds	binds
